The supplement of paper PMC7125110
± gives the standard error. Variants at the background level are over-represented here.

B1: glmS ribozyme (parent)
chain: AUAAAAGCGCCAGAACUACAGAAAUGUAGUUGACGAGGAGGAGGUUUAUCGAAUUUUCGGCGGAUGCCUCCAAA

Key:
Conditions in all cases: with glucosamine-6-phosphate
glucosamine-6-phosphate [1] = variants of: B1; experiment: self-cleavage kobs at 40 uM GlcN6P; higher = faster cleavage; RNA array
Method in brief: (§1)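 Tracking of barcoded ribozyme variants used a hybridised Cy3 probe at 37 °C, after in situ transcription by E. coli RNA polymerase on sequenced MiSeq chips. The flowed solution held 40 μM to 10 mM glucosamine-6-phosphate in HEPES/KCl/Mg(OAc)2 buffer, and imaging ran over ~14 h. kobs was taken from exponential decay fits of normalised per-tile medians, and kcat and KM from weighted Michaelis–Menten fits.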

glucosamine-6-phosphate [2] = variants of: B1; experiment: self-cleavage kobs at 640 uM GlcN6P; higher = faster cleavage; RNA array
Method in brief: as §1

glucosamine-6-phosphate [3] = variants of: B1; experiment: self-cleavage kobs at 2500 uM GlcN6P; higher = faster cleavage; RNA array
Method in brief: as §1

glucosamine-6-phosphate [4] = variants of: B1; experiment: self-cleavage kobs at 10000 uM GlcN6P; higher = faster cleavage; RNA array
Method in brief: as §1

glucosamine-6-phosphate [5] = variants of: B1; experiment: self-cleavage kobs at 160 uM GlcN6P; higher = faster cleavage; RNA array
Method in brief: as §1

| Variant | self-cleavage kobs at 40 uM GlcN6P (glucosamine-6-phosphate [1]) [s⁻¹] | self-cleavage kobs at 640 uM GlcN6P (glucosamine-6-phosphate [2]) [s⁻¹] | self-cleavage kobs at 2500 uM GlcN6P (glucosamine-6-phosphate [3]) [s⁻¹] | self-cleavage kobs at 10000 uM GlcN6P (glucosamine-6-phosphate [4]) [s⁻¹] | self-cleavage kobs at 160 uM GlcN6P (glucosamine-6-phosphate [5]) [s⁻¹] |
| --- | --- | --- | --- | --- | --- |
| AUAAAAGCGCCAGAACUACAGAAAUGUAGUUGACGAGGAGGAGGUAGAUCGAAUUUGCGUCGGAUGCCUCCAAA [U46A U47G U57G G60U] | < 1e-05 | < 1e-05 | < 1e-05 | < 1e-05 |  |
| AUAAAAGCGCCAGAACUACAGAAAUGUAGUUGACGAGGAGGAGGGUUAUCGAAUUUUCGUCGGAUGCCUCCAAA [U45G G60U] | < 1e-05 | < 1e-05 | < 1e-05 | < 1e-05 |  |
| AUAAAAGCGCCAGAACUACAGAAAUGUAGUUGACGAGGAGGAGGUUAAUAGAAUUUUCGGCGGAUGCCUCCAAA [U47A C50A] | < 1e-05 |  |  |  |  |
| AUAAAAGCGCCAGAACUACAGAAAUGUAGUUGACGAGGAGGAGGUCUAUCGAAUUUUCGGCGGAUGCCUCUAAA [U46C C71U] | 0.000102 ± 1.5e-05 |  |  |  |  |
| AUAAAAGCGCCAGAACUACAGAAAUGUAGUUGACGAGGAGGAGGUUAAUCGAAUGUUCGGCGGAUGCCUCCAAA [U47A U55G] | 0.000473 ± 8.1e-05 | 0.00869 ± 0.0018 | 0.0105 ± 0.0022 | 0.0152 ± 0.0031 | 0.000805 ± 0.00018 |
| AUAAAAGCGCCAGAACUACAGAAAUGUAGUUGACGAGGAGGAGGUGUAUCGAAUUUUCGGCGGAAGCCUUCAAA [U46G U65A C70U] | 8.31e-05 ± 1.9e-05 |  |  | 0.00117 ± 0.00024 |  |
| AUAAAAGCGCCAGAACUACAGAAAUGUAGUUGACGAGGAGGAGGGUUAUGGAAUUUUCGGCGGAUGCCUCCAAA [U45G C50G] | < 1e-05 | < 1e-05 | < 1e-05 | < 1e-05 | < 1e-05 |
| AUAAAAGCGCCAGAACUACAGAAAUGUAGUUGACGAGGAGGAGGUCUAUCUAAUUUUCGGCGGAUGCCUCCAAA [U46C G51U] | < 1e-05 | < 1e-05 | < 1e-05 |  | < 1e-05 |
| AUAAAAGCGCCAGAACUACAGAAAUGUAGUUGACGAGGAGGAGGUUAAUCGAAUUUUCGCAGGAUGCCUCCAAA [U47A G60C C61A] | < 1e-05 |  |  | < 1e-05 |  |
| AUAAAAGCGCCAGAACUACAGAAAUGUAGUUGACGAGGAGGAGGUCUCCCGAACUUUCGGCGGAUUCCUCCAAA [U46C A48C U49C U54C G66U] | < 1e-05 |  |  |  |  |
| AUAAAAGCGCCAGAACUACAGAAAUGUAGUUGACGAGGAGGAGGUGUAUCGAAGUUUCGGCGGAUGCCUCCAAA [U46G U54G] | 0.000155 ± 2.6e-05 | 0.00224 ± 0.0004 | 0.00479 ± 0.0013 | 0.0102 ± 0.003 | 0.000596 ± 0.00017 |
| AUAAAAGCGCCAGAACUACAGAAAUGUAGUUGACGAGGAGGAGGUGUACCGAAUUUUCGGCGGAUGCCUCCAAA [U46G U49C] | < 1e-05 | < 1e-05 | < 1e-05 | < 1e-05 | < 1e-05 |
